# Measured values published in PubChem BioAssay AID720708 (National Center for Advancing Translational Sciences (NCATS), 2013).
# Out of some 360,000 compounds screened, about 660 (0.18%) were called active. The shares of active, inactive and inconclusive entries below differ from those in the screen. Calls come from the whole dose curve; as a rule, active = well fitted inhibition curve with a large enough effect; inconclusive = small, poorly fitted or top-dose-only effect; inactive = no such curve, though single readings can be large or run the other way. Potencies of inconclusive entries are left out as doubtful fits.
# Target: Rap guanine nucleotide exchange factor 4 (Homo sapiens) (UniProt Q8WZA2)
# Sequence of UniProt Q8WZA2 (Q8WZA2 whole entry, looked up): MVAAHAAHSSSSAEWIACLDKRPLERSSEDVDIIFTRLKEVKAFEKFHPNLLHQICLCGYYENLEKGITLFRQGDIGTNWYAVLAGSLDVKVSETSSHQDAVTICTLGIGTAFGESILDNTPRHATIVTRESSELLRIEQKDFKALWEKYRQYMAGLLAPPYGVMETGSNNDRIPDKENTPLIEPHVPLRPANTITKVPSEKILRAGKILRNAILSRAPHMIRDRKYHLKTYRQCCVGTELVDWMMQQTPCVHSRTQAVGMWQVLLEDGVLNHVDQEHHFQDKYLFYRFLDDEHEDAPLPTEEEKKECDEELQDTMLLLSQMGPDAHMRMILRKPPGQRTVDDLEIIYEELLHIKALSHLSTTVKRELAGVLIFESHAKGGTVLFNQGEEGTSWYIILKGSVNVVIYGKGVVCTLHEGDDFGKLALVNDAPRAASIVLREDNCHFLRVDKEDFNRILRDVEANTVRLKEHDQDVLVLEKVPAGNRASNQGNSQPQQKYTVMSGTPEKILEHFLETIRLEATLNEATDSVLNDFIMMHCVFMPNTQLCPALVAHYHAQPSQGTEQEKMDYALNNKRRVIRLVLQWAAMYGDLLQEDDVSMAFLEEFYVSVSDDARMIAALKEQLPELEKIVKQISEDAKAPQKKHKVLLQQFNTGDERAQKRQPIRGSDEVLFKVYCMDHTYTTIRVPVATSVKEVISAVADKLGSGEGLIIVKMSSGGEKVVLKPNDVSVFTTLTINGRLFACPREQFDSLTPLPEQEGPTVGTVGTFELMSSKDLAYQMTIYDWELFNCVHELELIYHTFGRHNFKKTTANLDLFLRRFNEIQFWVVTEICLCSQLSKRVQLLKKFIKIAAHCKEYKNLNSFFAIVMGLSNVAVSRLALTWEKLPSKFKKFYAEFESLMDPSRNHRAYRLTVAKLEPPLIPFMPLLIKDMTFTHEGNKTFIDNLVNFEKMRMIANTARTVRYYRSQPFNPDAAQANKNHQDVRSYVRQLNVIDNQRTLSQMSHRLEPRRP
# Experiment: qHTS for Antagonist of cAMP-regulated guanine nucleotide exchange factor 2 (EPAC2): primary screen; note: nearly all actives have a fitted effect of over 45% in size
# Conditions: EPAC2 GEF exchange of Rap1B-BODIPY-GDP, fluorescence; activity, negative = inhibition: at 114 µM (top of the series) unless noted
# % is set by controls: 0 for no effect and ±100 for the full control effect; potency is the fitted concentration of half-maximal effect; tags give direction and shape of the fitted curve.
SMILES,Potency,"activity, negative = inhibition"
O=C1CCC(c2ccccc2)c2ccccc21 (centres undefined),"inconclusive [inhibitor, partial curve]",
COC(=O)c1cc(Cl)cc(Cl)c1OS(=O)(=O)N(C)C,"inconclusive [inhibitor, partial curve]",
Nc1ccc(N2CCOCC2)c2nonc12,"inconclusive [inhibitor, single point]",
COc1ccc(C)cc1NC(=O)C1COc2ccccc2O1 (centres undefined),"inconclusive [inhibitor, partial curve]",
COc1ccc(C(=O)/C=C/c2ccc(OCc3ccccc3)cc2)cc1CSCC(=O)O,"inconclusive [inhibitor, single point]",
CC(C)n1ncc2c(C(=O)N3CCN(c4ccccc4)CC3)cc(-c3ccccc3)nc21,"inconclusive [inhibitor, full curve, poor fit]",
COc1ccc(-n2ccc(-c3nn(-c4cccc(C(F)(F)F)c4)ccc3=O)n2)cc1,,inactive: -0.989%
Cc1ccc(OCC(=O)Nc2ccccc2F)cc1C,"inconclusive [inhibitor, single point]",
CC[n+]1c(/C=C/C=C/N(C(C)=O)c2ccccc2)sc2cc(OC)ccc21,,inactive: 46.4%
CS(=O)(=O)C1=NSC2=NC(=O)/C(=C\c3ccc(OS(=O)(=O)c4ccccc4)cc3)C(=N)N21,"inconclusive [inhibitor, partial curve]",
COc1ccc(C(=O)/C=C2\NCCc3cc(OC)c(OC)cc32)cc1OC,"inconclusive [inhibitor, single point]",
CCn1c(=O)c(C(=O)Nc2cccnc2)c(O)c2ccccc21,"inconclusive [inhibitor, partial curve]",
CC(=O)C(C(C)=O)C1(O)C(=O)c2ccccc2C1=O,,inactive: -9.69%
Cc1ccc(OCCn2c(=O)n(C)c3ccccc32)cc1,"inconclusive [inhibitor, single point]",
O=C(CC1C[C@H](C(=O)N2CCCCC2)[C@@]2(CCc3ccccc3)c3[nH]c4ccccc4c3CCN2C1=O)NCCCn1ccnc1 (some centres undefined),"inconclusive [inhibitor, partial curve, poor fit]",
Nc1cccc2c1C(=O)N(CC(=O)NC13CC4CC(CC(C4)C1)C3)C2=O,,inactive: 12.1%
O=C(/C=C/c1ccc(F)cc1)Nc1cc(S(=O)(=O)N2CCOCC2)ccc1N1CCCC1,,inactive: 14.6%
CC1CN(C(=O)c2cccc(S(=O)(=O)Nc3ccc(Cl)cc3)c2)CC(C)O1 (centres undefined),"inconclusive [inhibitor, single point]",
COc1ccc(N2C(=O)CC(N3CCN(c4ccc(Cl)cc4)CC3)C2=O)cc1 (centres undefined),"inconclusive [inhibitor, partial curve]",
O=C(O)c1cccc(N2C(=O)c3cc([N+](=O)[O-])cc4cc([N+](=O)[O-])cc(c34)C2=O)c1,active: 50.1 µM,
Cc1nc(N(C)Cc2ccccc2)c2c(C)c(C)sc2n1,"inconclusive [inhibitor, partial curve]",
Cc1ccc(C(C)C)c(Oc2cnccn2)c1,"inconclusive [inhibitor, partial curve]",
O=C1C=C(Nc2ccccc2C(=O)O)c2ccccc2C1=O,"inconclusive [inhibitor, single point]",

SMILES,Potency,"activity, negative = inhibition"
COCOCCn1cc(CN2CCS(=O)(=O)N(Cc3ccc(-c4ccc(F)cc4)cc3)C(CC(C)C)C2=O)nn1 (centres undefined),active: 12.6 µM,
Cc1csc(Nc2ccccc2)[n+]1-c1ccccc1,"inconclusive [inhibitor, partial curve]",
Cc1c(C(=O)N(Cc2ccccc2)Cc2cccs2)cnn1-c1ccc(Cl)cc1,"inconclusive [inhibitor, partial curve]",
CC(=O)c1cccc(NC(=O)c2cc(S(=O)(=O)N3CCCCC3)ccc2N2CCOCC2)c1,,inactive: 0%
Cc1ccc(-n2nc3ccc(N)cc3n2)c(C)c1,"inconclusive [inhibitor, partial curve, poor fit]",
O=C(N/N=C/C(Br)=C\c1ccccc1)c1cccs1,"inconclusive [inhibitor, full curve]",
C/C(=N\Nc1ccccn1)c1ccc(N2CCOCC2)cc1,,inactive: -0.576%
O=C1CN(C(=O)c2c(F)cccc2F)C(c2ccccc2)c2cc(Br)ccc2N1 (centres undefined),"inconclusive [inhibitor, partial curve]",
COc1ccc(NC(=O)Nc2ccc([N+](=O)[O-])cc2)cn1,"inconclusive [inhibitor, partial curve, poor fit]",
Cc1cc(C(=O)COc2ccc(Cl)cc2Br)c(C)n1C,"inconclusive [inhibitor, partial curve]",
CN(C)CCNC(=O)c1cccc(S(=O)(=O)Nc2ccc(F)cc2)c1,"inconclusive [inhibitor, partial curve]",
Nc1nnc(Sc2ccc(Cl)cc2[N+](=O)[O-])s1,"inconclusive [inhibitor, single point]",
Cc1cc(C)cc(N=Cc2ccc([N+](=O)[O-])s2)c1,,inactive: -3.47%
CSc1nnc(-c2ccccc2)c(-c2ccccc2)n1,"inconclusive [inhibitor, full curve]",
CCCCCc1c(-c2cccc(Br)c2)ncn1CCc1ccccc1OC,,inconclusive: -30.5% [inhibitor]
COCCn1c(-c2ccccc2)csc1=Nc1cccnc1,"inconclusive [inhibitor, partial curve]",
COc1ccc(NC(=S)NNc2ccc(C(=O)O)cc2)cc1,,inactive: 9.04%
Cc1cccc(Cn2cc(/C=C/[N+](=O)[O-])c3ccccc32)c1,,inactive: 29.4%
COc1ccc(S(=O)(=O)N2CCN(C(=O)c3ccc(C)o3)CC2)cc1,,inactive: -9.62%
NC(=O)COC(=O)CC(c1ccccc1)c1ccccc1,,inactive: 13.8%
C/C(=N\NC(=O)Cc1ccccc1)c1ccc(Br)s1,,inactive: 13.5%
COc1ccc2nc(C3CCCCC3)c3c(c2c1)CCC3,"inconclusive [inhibitor, full curve]",
CCc1ccc(S(=O)(=O)/N=C2\C=C(NS(=O)(=O)c3ccccc3)C(=O)c3ccccc32)cc1,"inconclusive [inhibitor, partial curve]",

SMILES,Potency,"activity, negative = inhibition"
Cc1c(C(=O)N2CCCC2)oc2c1-c1[nH]ncc1CC2,,inactive: 0%
O=C(NC1CCCCC1)C(c1ccncc1)n1c(=O)c(-c2cc3ccccc3[nH]2)nc2ccccc21 (centres undefined),"inconclusive [inhibitor, full curve, poor fit]",
O=C(O)/C=C/c1ccc(O)c(O)c1,,inactive: 8.05%
COc1ccc(-c2nc(C)ncc2-c2ccc(Cl)cc2)c(O)c1,"inconclusive [inhibitor, full curve]",
CCOC(=O)C1(C(=O)OCC)C(C(=O)c2ccccc2)C1c1ccccc1 (centres undefined),"inconclusive [inhibitor, partial curve]",
COc1ccc(-c2csc(NC(=O)c3ccccc3F)n2)cc1,,inactive: 2.9%
CCOc1cc(C(=O)NCC(C)(C)CNC(=O)c2cc(OCC)c(OCC)c(OCC)c2)cc(OCC)c1OCC,"inconclusive [inhibitor, partial curve]",
CN(C)c1oc(-c2ccccc2Cl)nc1S(=O)(=O)c1ccccc1,"inconclusive [inhibitor, full curve]",
CC(=O)NS(=O)(=O)c1ccc(NC(=O)c2cc(-c3ccc(C)c(C)c3)nc3ccccc23)cc1,"inconclusive [inhibitor, single point]",
OC(c1cccc(Cl)c1)c1nccc2ccccc12 (centres undefined),"inconclusive [inhibitor, full curve]",
COc1cc(F)c(S(=O)(=O)N2CCOc3ccccc32)cc1OC,"inconclusive [inhibitor, single point]",
CNC(=O)NC(=O)C(NC1CCCc2ccccc21)c1ccccc1 (centres undefined),"inconclusive [inhibitor, full curve]",
O=C1/C(=C\c2cccc([N+](=O)[O-])c2O)SC(=S)N1Cc1ccccc1,"inconclusive [inhibitor, partial curve]",
CN(c1ccccc1)S(=O)(=O)c1cccc(NC(=O)Cc2n[nH]c(=O)c3ccccc23)c1,"inconclusive [inhibitor, full curve, poor fit]",
CC/C(=N\NC(=S)NC(C)C)c1ccc(OC(F)F)cc1,"inconclusive [inhibitor, partial curve]",
CCCCc1nc(Cl)c(C#N)c2c1CCCC2,"inconclusive [inhibitor, partial curve]",
O=C(c1ccco1)N1CCN(c2cc(=O)n(C3CCCCC3)c(=O)[nH]2)CC1,"inconclusive [inhibitor, full curve, poor fit]",
Cc1[nH]ncc1Nc1c(C(C)C)cccc1C(C)C,"inconclusive [inhibitor, partial curve]",
CCN1C(=O)N(S(=O)(=O)C(F)(F)F)[C@@H](c2ccccc2)C(C(=O)OC)=C1C,active: 31.6 µM,
O=C1NC(=S)S/C1=C\C=C\c1ccc([N+](=O)[O-])o1,active: 50.1 µM,
Cc1ccnc(SCC(=O)c2cc3ccccc3o2)n1,,inactive: -27.2%
O=C1S/C(=C/c2ccccc2)C(=O)N1CC(O)Cn1c2ccccc2c2ccccc21 (centres undefined),,inactive: 5.97%
CS(=O)(=O)c1ccc2nc(NC(=O)CCNC(=O)c3ccc([N+](=O)[O-])cc3)sc2c1,"inconclusive [inhibitor, single point]",
